Data from PubChem BioAssay AID463254 (National Center for Advancing Translational Sciences (NCATS), 2010).
About 40 (0.01%) of roughly 330,000 compounds were called active. The inconclusive results got no clear call from the source; some entries with a clear call stand among them for comparison. The call rests on the fitted dose curve; in most records, active means well fitted inhibition curve with a large enough effect; inconclusive means small, poorly fitted or top-dose-only effect, or effect the other way; inactive means flat fitted curve, though single readings scatter. Potencies of inconclusive entries are doubtful fits and often do not repeat.

What follows are compounds tested against Ubiquitin carboxyl-terminal hydrolase 2 (Homo sapiens) (UniProt O75604) (assay: qHTS Assay for Inhibitors of Ubiquitin-specific Protease USP2a Using CHOP2 as the Reporter). Conditions: USP2 core, Ub-CHOP2 coupled fluorogenic reporter, 485/531; series mostly up to 38.3 µM.
In short: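 Cell-free coupled assay: 10nM USP2 core preincubated 30min RT with compound in Tris-HCl pH 8.0/CaCl2/CHAPS buffer, then 25nM Ub-CHOP2 and 25nM reporter substrate; fluorescence (Ex 485/Em 531) read after 60min RT, normalized to NEM inhibition, concentration-response curves fitted.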
Potency means the concentration at half of the fitted maximal effect; tags describe the fitted curve by direction and shape or compound fluorescence and quenching.

Chain of UniProt O75604 (O75604 whole entry, looked up): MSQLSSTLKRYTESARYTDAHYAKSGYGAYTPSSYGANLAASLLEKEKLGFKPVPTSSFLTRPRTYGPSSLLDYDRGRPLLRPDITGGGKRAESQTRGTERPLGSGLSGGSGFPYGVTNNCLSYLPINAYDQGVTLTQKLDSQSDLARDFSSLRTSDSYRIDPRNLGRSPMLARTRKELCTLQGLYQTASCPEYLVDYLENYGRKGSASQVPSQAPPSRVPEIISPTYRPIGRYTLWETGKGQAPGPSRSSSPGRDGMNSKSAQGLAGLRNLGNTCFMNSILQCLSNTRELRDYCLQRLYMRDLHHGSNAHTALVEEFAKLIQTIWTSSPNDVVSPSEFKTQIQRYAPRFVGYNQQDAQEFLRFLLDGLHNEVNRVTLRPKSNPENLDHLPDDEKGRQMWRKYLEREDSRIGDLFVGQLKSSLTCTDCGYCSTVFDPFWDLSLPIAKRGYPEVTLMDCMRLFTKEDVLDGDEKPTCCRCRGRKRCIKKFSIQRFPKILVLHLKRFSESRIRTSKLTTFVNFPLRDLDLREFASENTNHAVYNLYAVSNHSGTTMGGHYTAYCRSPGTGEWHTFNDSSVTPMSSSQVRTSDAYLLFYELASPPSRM

Structure (SMILES) | Potency
O=S(=O)(c1cc(Cl)ccc1Cl)N1CCNCC1 | inconclusive: 5.01 µM [falling, single point]
O=C(O)c1cccc2c1C(=O)c1ccc(-c3ccc(F)cc3OCc3ccccc3)cc1S2(=O)=O | inconclusive: 28.2 µM [falling, single point]
Cc1nc2ccccc2c2oc(C(=O)NCCN3CCN(C)CC3)cc12 | inconclusive: 3.55 µM [falling, single point]
CCOc1ccccc1N1C(=O)CC(Nc2ccc(N3CCOCC3)cc2)C1=O (configuration not stated) | inconclusive: 22.4 µM [falling, single point]
CCCCc1ccc(/C=C2/C(=O)ON=C2c2ccccc2)s1 | inconclusive: 0.891 µM [falling, full curve]
Cc1cccc(-c2c3c(=O)n(C)c(=O)n(C)c3cn2-c2ccccc2O)c1 | inconclusive: 4.47 µM [fluorescent, single point]
C#CCOc1ccc(/C=C2/C(=O)ON=C2C)cc1Cl | inactive
CCOC(=O)C1(Cc2ccccc2C(F)(F)F)CCN(C(C)CSC)CC1 (configuration not stated) | inactive
O=c1c2c(-c3cccs3)csc2ncn1-c1ccccc1 | inactive
O=C(N=c1ccn(-c2nc3ccccc3nc2NS(=O)(=O)c2ccc(Cl)cc2)cc1)c1cccs1 | inconclusive: 20 µM [fluorescent, single point]
N#Cc1c2c(c(NCCCN3CCOCC3)n3c1nc1ccccc13)CCC2 | inactive
C[C@@H]1CN([C@H](C)CO)C(=O)c2cc(NC(=O)Nc3ccc(C(F)(F)F)cc3)ccc2O[C@H]1CN(C)Cc1ccc(Cl)c(Cl)c1 | inactive
COc1c(/C=C2\SC(=Nc3ccccc3Cl)NC2=O)cccc1[N+](=O)[O-] | inconclusive: 28.2 µM [falling, single point]
O=C(O)C[C@@H]1C(=O)O[C@@H]2C(COC(=O)c3cc(O)c(O)c(O)c3)O[C@@H](OC(=O)c3cc(O)c(O)c(O)c3)[C@@H](OC(=O)c3cc(O)c(O)c4c3[C@H]1[C@H](O)C(=O)O4)[C@H]2OC(=O)c1cc(O)c(O)c(O)c1 (some centres not stated) | active: 0.891 µM
CC(C)(C)CC(C)(C)c1ccc(OCCOCC[N+](C)(C)Cc2ccccc2)cc1 | inconclusive: 28.2 µM [falling, single point]
COc1ccc(-c2[nH]nc3oc(=O)c(CCO)c(C)c23)cc1 | inactive
CCN(CC)c1ccc(/C=C/c2cc(-c3ccccc3)c3ccccc3n2)cc1 | inconclusive: 10 µM [fluorescent, partial curve]
CSC1=NSC2=NC(=O)/C(=C\c3coc4ccccc4c3=O)C(=N)N12 | inconclusive: 11.2 µM [fluorescent, partial curve]
CCC(Oc1ccccc1)C(=O)Nc1ncc([N+](=O)[O-])s1 (configuration not stated) | inactive
CN(C(=O)COC(=O)c1cc(-c2ccco2)nc2ccccc12)C1CCS(=O)(=O)C1 (configuration not stated) | inconclusive: 20 µM [falling, single point]
O=S(=O)(NC1CCSc2ccccc21)c1ccccc1 (configuration not stated) | inconclusive: 20 µM [falling, single point]
Cn1c(C(=O)NCCN2CCOCC2)cc2c(=O)n(C)c3ccccc3c21 | inconclusive: 5.01 µM [falling, single point]
Cc1ccc(Nc2nc(N)nc(CN3CCN(C(=O)c4ccco4)CC3)n2)cc1Cl | inconclusive: 3.55 µM [falling, single point]

Structure (SMILES) | Potency
O=C(/C=C/c1ccc(Br)o1)NCc1ccccc1 | inactive
COCCn1nnnc1CN(CCc1ccccc1)Cc1cc2ccc(C)cc2[nH]c1=O | inconclusive: 3.98 µM [falling, single point]
Clc1ccccc1-c1nnc2sc(-c3cccs3)nn12 | inconclusive: 5.01 µM [falling, single point]
COc1ccc(S(=O)(=O)N2CCCC2C(=O)NCc2cccs2)cc1 (configuration not stated) | inconclusive: 28.2 µM [falling, single point]
O=C(NC1CCCCC1)C(c1cccnc1)N(C(=O)CCl)c1ccc(F)cc1 (configuration not stated) | inactive
COC(=O)C1=C(C)N(Cc2ccccc2)C(=NCC2CC2)N[C@H]1c1ccc(Br)cc1 | inactive
CC(C)N(C(=O)c1sc2cc([N+](=O)[O-])ccc2c1Cl)C(C)C | inconclusive: 3.98 µM [falling, single point]
O=C(NNc1ccc([N+](=O)[O-])cc1)Nc1ccccc1 | inactive
Cc1nc(NS(=O)(=O)c2ccccc2)sc1NC(=O)OCCN(C)C | inconclusive: 14.1 µM [fluorescent, single point]
CCn1c(SCC(=O)NCCc2ccccc2)nnc1-c1cccs1 | inconclusive: 2.82 µM [falling, single point]
COC(=O)CC1Oc2ccc(C)cc2NC1=O (configuration not stated) | inconclusive: 5.01 µM [falling, single point]
O=C(OCC(=O)N1N=C(c2ccc(Cl)cc2)CC1c1ccco1)c1cccnc1 (configuration not stated) | inconclusive: 10 µM [falling, single point]
O=C1CC(c2ccc(Cl)cc2)SC(N(c2ccccc2)c2ccccc2)=N1 (configuration not stated) | inconclusive: 5.01 µM [falling, single point]
O=C1C=C(Nc2ccc(Cl)cc2Cl)CC(c2ccco2)C1 (configuration not stated) | inactive
O=C(O)CCC(=O)N1CCN(S(=O)(=O)c2ccc3ccccc3c2)CC1 | inactive
COC(=O)C1Sc2[nH]c(=O)sc2C(c2ccc(Cl)cc2)C1C(=O)OC (configuration not stated) | inconclusive: 4.47 µM [falling, single point]
COC(=O)c1ccc(NC(=O)CSC2=Nc3ccccc3C3CC=NN23)cc1 (configuration not stated) | inconclusive: 5.01 µM [falling, single point]
CCc1sc(C(C2C(=O)CC(C)(C)CC2=O)C2C(=O)CC(C)(C)CC2=O)cc1[N+](=O)[O-] | inactive
Cc1ccc(C(=O)N(C)CC(=O)Nc2cccc(C)c2C)o1 | inconclusive: 5.01 µM [falling, single point]
Cc1ccc(NC(=O)C2CC(=O)N/C(=N/N=C/c3ccco3)S2)cc1 (configuration not stated) | inactive
C[C@@H]1CC[C@]2(C(=O)O)CC[C@]3(C)C(=CCC4[C@]56CC[C@@](O)(OC5)C(C)(C)C6CC[C@]43C)C2[C@H]1C (some centres not stated) | inconclusive: 25.1 µM [falling, single point]
Cc1ccc(-c2nn(-c3ccccc3)cc2C(=O)O)o1 | inconclusive: 14.1 µM [falling, single point]
Cc1ccc(O)c(C(=O)c2cc(C#N)c(=O)n(-c3nccs3)c2)c1 | inconclusive: 15.8 µM [fluorescent, single point]

Structure (SMILES) | Potency
O=C(NCc1cccs1)C1CCCN(c2nc3ccccc3o2)C1 (configuration not stated) | inactive
CCN(CC)c1ccc(/C=C(/C#N)c2nc3ccc(C)cc3[nH]2)c(OC(C)C)c1 | inconclusive: 14.1 µM [fluorescent, partial curve]
C=CCN1C(=O)/C(=C/C=C2/N(CC)c3ccc(S(=O)(=O)N(C)C)cc3N2CC)SC1=S | inconclusive: 3.16 µM [fluorescent, partial curve]
CCCn1c(C)cc(C)c(C#N)c1=O | inconclusive: 3.16 µM [falling, single point]
Cc1cc(C)c(NC(=O)C[N+](C)(C)CC(O)COc2cccc3ccccc23)c(C)c1 (configuration not stated) | inconclusive: 14.1 µM [falling, single point]
NC(=O)c1ncc(C(F)(F)F)cc1Oc1cccc(F)c1 | inconclusive: 5.01 µM [falling, single point]
CCc1ccc(C2C(C#N)=C(N)SC(N)=C2C#N)s1 | inconclusive: 28.2 µM [falling, single point]
Cc1ccc(S(=O)(=O)Cc2ccc(C(=O)N3CCN(c4ccccn4)CC3)o2)cc1 | inconclusive: 28.2 µM [falling, single point]
CCN=C1SC(C(=O)Nc2cccc(OCC)c2)CC(=O)N1CC (configuration not stated) | inconclusive: 14.1 µM [falling, single point]
O=C(c1ccco1)N1CCN(C(c2cccs2)c2sc3ncnn3c2O)CC1 (configuration not stated) | inconclusive: 25.1 µM [falling, single point]
Cc1cccc(OCC(=O)Nc2ccc(N3CCCC3)cc2)c1C | inconclusive: 28.2 µM [falling, single point]
Cn1/c(=N/N=C/c2ccc(N3CCOCC3)cc2)sc2ccccc21 | inconclusive: 28.2 µM [fluorescent, single point]
CC(=O)Nc1ccc(S(=O)(=O)Nc2nc3ccccc3nc2Nc2ccc(O)c(C(=O)O)c2)cc1 | inconclusive: 15.8 µM [fluorescent, single point]
CSc1cnn(-c2ccccc2)c(=O)c1SC | inactive
CCOc1ccc(NC(=O)c2cccc(-n3cnnn3)c2)cc1 | inconclusive: 5.01 µM [falling, single point]
CC(C)OCCCNC(=O)c1c(N)n(/N=C/c2ccccn2)c2nc3ccccc3nc12 | inconclusive: 3.16 µM [falling, single point]
CCCn1c(=NC(=O)c2ccc3c(c2)OCO3)c(C#N)cc2c(=O)n3cccc(C)c3nc21 | inconclusive: 5.01 µM [fluorescent, single point]
Cc1cc(NC(c2cccnc2)c2ccc3cccnc3c2O)no1 (configuration not stated) | inconclusive: 14.1 µM [falling, single point]
Cc1ccc2c(c1)c1c(n2CC(O)CNC2CCCCC2)CCCC1 (configuration not stated) | inactive
CCOc1ccc(C(=O)Nc2ccc(Cc3ccncc3)cc2)cc1Br | inactive
COC(=O)CN1C(=O)S/C(=C/c2ccc(N3CCCCC3)o2)C1=O | inconclusive: 11.2 µM [fluorescent, partial curve]
